Test results taken from the RNAGym collection of RNA variant scans (doi:10.1093/nar/gkz1192).
Read counts are not given, so values of variants with three or more changes are uncertain.

B1: CPEB3 Ribozyme (parent)
chain: UAACAGGGGGCCACAGCAGAAGCGUUCACGUCGCAGCCCCUGUCAGAUUCUGGUGAAUCUGCGAAUUCUGCUGUAUAUCUC

Variants of: B1
Assay: self-cleavage, relative activity (ratio to wild type); higher = more cleavage; in vitro, sequencing
In short: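 Relative activity was defined as the cleaved/total read fraction for a variant divided by the same fraction for the unmutated ribozyme. CPEB3 self-cleaving ribozyme libraries were made by rounds of error-prone PCR, barcoded, and transcribed in vitro with T7 RNA polymerase for 5 hours at 37°C, and cleavage ran through transcription plus a 15 min DNase I step before EDTA. Illumina sequencing of template-switched reverse transcripts gave the reads, and DNA sequencing mapped the barcodes. Averages come from three batches, using variants with at least 5 reads.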

| Variant | self-cleavage |
| --- | --- |
| UAACGGGGAGCCACAGCAGAAGCGUUCGCGUCGCAGCCCCUGUCAGAUUCUGGUGAAACUGCGAAUUCUGCUUUAUAUCUC [A5G G9A A28G U58A G73U] | 0.07 |
| UAACGGGGAGCCACAGCAGAAGCGUUCACGUCGCAGCCCCUGUCGGAUUCUGGUGAAUCUGCGGAUUCUGCUGUAUAUCUC [A5G G9A A45G A64G] | 0.06 |
| UAACGGGGAGCCACAGCAGAAGCGUUCACGUCGCAGCCCCUGUCAGAUUCUGGUGAGUCUGCGAAUUCUGCUGUAUAUCUC [A5G G9A A57G] | 0.51 |
| UAACGGGGAGCCACAGGAGAAGCGUUCACGUCGCAGCCCCUGUCAGAUUCUGGUGAAUCUGCGAAUUCUGCUGUAUAUCUC [A5G G9A C17G] | 0.42 |
| UAACGGGGAGCCACAGCAGAAGCGUUCACGUCGCAGUCCCUGUCAGAUUCUGGUGAAUCUGCGAAUUCUGCCGCAUAUCUC [A5G G9A C37U U72C U74C] | 0.07 |
| UAACGGGGAGCCACAGCAGAAGCGUUCACGUCGCAGCCCCUGUCAGAUUCUGGUUAAUCUGCGGAUUCGGCAGUAUAUCCC [A5G G9A G55U A64G U69G U72A U80C] | 0.14 |
| UAACGGGGAGCCACAGCAGAAGCGAUCACGUCGCAGUCCCUGUCAGAUUCUGGGGAAUCUGCGAAUUCUGCUGUGUAUCUC [A5G G9A U25A C37U U54G A75G] | 0.06 |
| UAACGGGGAGCCACAGCAGAAGCGUACACGUCGCAGCCCCUGUCAGAUUCUGGUGAAUCUGCGAAUUCUGCUGUAUAUCUC [A5G G9A U26A] | 0.54 |
| UAACGGGGAGCCACAGCAGAAGCGUUCACGCCGCAGCCCCUGCCAGAUUCUGGUGAAUCUGCGAAUUCUGCUGUAUAUCUC [A5G G9A U31C U43C] | 0.28 |
| UAACGGGGAGCCACAGCAGAAGCGUUCACGUCGCAGCCCCUGCCAGAUUCUGGCGAACCUGCGAAUCCUGCUGUAUAUCUC [A5G G9A U43C U54C U58C U67C] | 0.06 |
| UAACGGGGAGCCACAGCAGAAGCGUUCACGUCGCAGCCCCUGUCAGAUACUGGUGAAUCUGCGAAUUCUGCUGUAUAUCUC [A5G G9A U49A] | 0.08 |
| UAACGGGGAGCCACAGCAGAAGCGUUCACGUCGCAGCCCCUGUCAGAUUCAGGUGUAUCUGCGAGUUCUGCUGUAUAUCUC [A5G G9A U51A A56U A65G] | 0.19 |
| UAACGGGGAGCCACAGCAGAAGCGUUCACGUCGCAGCCCCUGUCAGAUUCUGGUGAAUCUGCGAAUUCUGCAGUAUAUCUC [A5G G9A U72A] | 0.39 |
| UAACGGGGUGCCACAGCGGAAGCGUUCACGUCGCGGCCCCUGUCAGAUUCUGGUGAAUCUGCGAAUUCUGCUGUAUAUCUC [A5G G9U A18G A35G] | 0.32 |
| UAACGGGGUGCCACAGCAGAGGCGUUCACGUCGUAGCCCCUGUCAGAUUCUGGCGAAUCUGCGAAUUCUGCUGUAUACCCC [A5G G9U A21G C34U U54C U78C U80C] | 0.05 |
| UAACGGGGUGCCACAGCAGAAGCGUUCAGGUCGCAGCCCCAGUCAGAUUCUGGUGAACCUGCGAAUUCUGCUGUAUAUCUC [A5G G9U C29G U41A U58C] | 0.31 |
| UAACGGGGUGCCACAGCAGAAGCGUCCAUGUCGCAGCCCCUGUCAGAUUCUGGUGGAUCUGCGAAUUCUGCCGUAUAUCUC [A5G G9U U26C C29U A56G U72C] | 0.34 |

| Variant | self-cleavage |
| --- | --- |
| UAACGGGGUGCCACAGCAGAAGCGUUCACGUCGCAGCCCCUGUCAGACUCUGGUGAAUCUGCGAAUUCUGCUGUAUAUCUC [A5G G9U U48C] | 0.71 |
| UAACGGGGGACCUCAGCAGAAGCGUUCACGGCGCAGCCCCUGUCAGAUUCUGGCGAAUCUGCGAAUUCUGCUGUAUUUCUC [A5G G10A A13U U31G U54C A77U] | 0.06 |
| UAACGGGGGACCACAGCUGAGGCGUUCACGUCGCAGCCCCUGUCAGAGUCUGGUGAAUCUGCGAAUUCUGCUGUAUAUGUC [A5G G10A A18U A21G U48G C79G] | 0.05 |
| UAACGGGGGACCACAGCAGGAGCGUUCACGUCGCAGCCCCAGUCAGAUUCUGGUGAAUCUGCGAAUUCUGCUGUAUAUCUC [A5G G10A A20G U41A] | 0.29 |
| UAACGGGGGACCACAGCAGAAGCGUUCACGUCGCAGCCCCUGUCGGAAUCUGGUGACUCUGCGAGUUCUGCUGUAUAUCCC [A5G G10A A45G U48A A57C A65G U80C] | 0.06 |
| UAACGGGGGACCACAGUAGAAGCGUCCACGUCGCAGCCCCUGUCAGAUUCUGGUGAAUCUGCGAAUUCUGCUGUAUAUCUC [A5G G10A C17U U26C] | 0.09 |
| UAACGGGGGACCACAGCAGAAGUGUUCACGUCGCAGCCCCUGACAGAUUCUGGUGAAUCUGCGAAUUCUGCUGCUUAUCUC [A5G G10A C23U U43A U74C A75U] | 0.06 |
| UAACGGGGGACCACAGCAGAAGCGUUUACGUCGCAGCCCCUGUCAGAUUCUGGUGAAUCUGAGAAUUCUGCUGUAUAUCUC [A5G G10A C27U C62A] | 0.26 |
| UAACGGGGGACCACAGCAGAAGCGUUCACGUCGCAGCCCCUGUCAGAUUCUGGGUAAUCUGCGAAUUCUGCUGUAUAUCUC [A5G G10A U54G G55U] | 0.33 |
| UAACGGGGGUCCACAGCAGAAGCGUUCACCUCGCAGCCCCUGUCAGAUUCUGGUGAAUCUGCGAAUUCUGCUGUAUAUCUC [A5G G10U G30C] | 0.34 |
| UAACGGGGGUCCACAGCAGAAGCGUUCACGUCGCAGCCCCGGUCAGAUUCUGGUGUAUCUGCGAAUUCUGCUGAAUAUCUC [A5G G10U U41G A56U U74A] | 0.06 |
| UAACGGGGGGCCACAACAGAAGCGAUCACGUCGCAGCCCCUGUCAGAUCCUGGUGAGUCUGCGAAUUCUGCUGUAUAUCUC [A5G G16A U25A U49C A57G] | 0.38 |
| UAACGGGGGGCCACAACAGAAGCGUUCACGUCGCAGCCCCGGUCAGAUUCUGGUGAAUCUGCGAAUUCUGCCGUAUACCUC [A5G G16A U41G U72C U78C] | 0.08 |
| UAACGGGGGGCCACAACAGAAGCGUUCACGUCGCAGCCCCUGCCAGAUUCUGGUGAAUCUGCGGACUCUGCUGUAUAUCUC [A5G G16A U43C A64G U66C] | 0.06 |
| UAACGGGGGGCCACACCAGAAGCGUUCACGUCGCAGCCCCUGACGGAUUCUGGCGAAUCUGCGAAUUCUGCUGUAUAUCCC [A5G G16C U43A A45G U54C U80C] | 0.17 |
| UAACGGGGGGCCACACCAGAAGCGUUCACGUCGCAGCCCCUGUCAGAUUCAGGUGAAUCUGCGAAUUCUGCUGUAUAUCUC [A5G G16C U51A] | 0.38 |
| UAACGGGGGGCCACAUCAGAGGCGUUCACGUCGCAGCCCCAGCCAGAUUCUGGUGAAUAUGCGAAUUCCGCUGUAUAUCUC [A5G G16U A21G U41A U43C C59A U69C] | 0.05 |
